Measured values taken from the supplement of paper PMC4466236.
In all, about 33,000 sequences were measured (“E-score (dimensionless, -0.5 to 0.5)”: median about -0.058, highest 2% from about 0.35 on). Some of the results follow.

Tested on: MvaT
Assay: PBM 8-mer E-score (mean of HK and ME arrays) (E-score (dimensionless, -0.5 to 0.5)); higher = stronger relative binding preference; most listed sequences are background and not binding sites
Procedure, shortened: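 Full-length P. aeruginosa MvaT, with glutathione S-transferase fused to its N-terminus (cloned into pTH6838 by isothermal assembly), was tested by protein binding microarray using a previously described protocol. Two universal double-stranded 60-mer arrays (ME and HK) were used, each with a constant 25-mer primer region and a variable 35-mer region covering all 8-mers. The rank-based 8-mer E-score (-0.5 to 0.5) is the mean of the two arrays, parsed with a custom Python script.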

Sequence	PBM 8-mer E-score
GACAACCA	-0.0943
CGGTCAAC	-0.039
CCCTCCGC	-0.368
AATACACA	0.151
CGGCCCAC	-0.243
GGCATCGA	-0.213
GGAATAAC	0.219
ATGTGGAA	0.13
CCTCTTAG	-0.0173
CTGGTTAA	0.0777
CGTCGGGA	-0.113
CTGGTCGC	-0.276
ATTGGCAA	-0.063
GTAGCGGA	-0.158
TAGAGGAA	0.0247
ATCACGCA	0.008
AAAGCGCT	-0.0816
ACGCGGAT	0.00563
ATTTCCCG	0.119
CCTGTTAA	0.167
ATAGAACA	0.152
AAAGGTCT	-0.0713
AGAGTGTA	0.135
CCGTGTTA	0.054

Sequence	PBM 8-mer E-score
ACCTTTAG	-0.137
ACTAAGGC	0.0788
ATGTACTA	0.156
CGTCACTA	-0.0977
CCAATCAG	-0.0636
AGCGGCAG	-0.217
CGGCCAAA	-0.0205
GTCGATTA	0.0975
TCACGTAA	0.0784
CTGTTAAG	-0.0117
ATTGTTAA	0.393
CACCGCTA	-0.0488
AGCAAGCA	-0.109
AACTGTGT	0.00514
GCTTGACA	-0.183
TCCATGAA	-0.006
CGAGCAAC	-0.123
GGTTACCA	-0.288
ACGGCCAT	-0.108
GCCCCCGC	-0.248
GACGCTGA	-0.0905
GATGTGTA	0.148
CCATTGGA	-0.171
CGACGGAC	-0.269

Sequence	PBM 8-mer E-score
AAAATGAA	0.226
CTTTGCGC	-0.00212
CATTTCGC	-0.0148
ATCAAGCG	-0.0474
AGATCTTA	0.134
GCGCATTA	0.0466
CCGACGGC	-0.119
CGTGATGC	-0.105
CGGGATGC	-0.134
GTTACTCA	0.0585
CTTGCGCA	-0.0318
CCTTAACG	-0.0169
AAATGCGG	0.0213
CACCACCA	-0.0616
CGCTTACC	-0.0677
GCCACATA	-0.0576
ACAATGTG	0.137
GTTTGAAA	0.192
ACATGCGT	-0.186
CCTTATGA	-0.0312
GGAGCGCA	-0.0948
CAAGTTAC	0.23
CCTTTCAG	-0.162
GGACAGAC	-0.171

Sequence	PBM 8-mer E-score
CGCGACAC	-0.149
ATAGGCGG	-0.157
CGCTTCCA	-0.144
GTTTGGAA	0.0376
ATTTTACC	0.13
CGTGAGCA	-0.129
CAATACCG	0.0309
ACTTCTCA	0.0552
GACAGTGC	-0.0231
CGAGGAAG	-0.174
AGTGCGTA	0.0011
GAAGGATC	-0.274
ACCACGTA	-0.0477
GCGATTAA	0.184
CGTGTCAA	-0.0234
CAGTCCCG	-0.241
CGTGCTAG	-0.222
GAGGCGTA	-0.211
AACTATAT	0.349
AGTAGCTG	-0.0936
AAGATTTC	0.0199
ACCATTTG	-0.00253
